# The other results are listed elsewhere or left out. Sequences were assembled here from the parent chain. Inactive controls read about 0.05.
# B1: TEV protease; numbered along this chain (parent)
# chain: MGESLFKGPRDYNPISSSICHLTNESDGHTTSLYGIGFGPFIITNKHLFRRNNGTLVVQSLHGVFKVKDTTTLQQHLVDGRDMIIIRMPKDFPPFPQKLKFREPQREERICLVTTNFQTKSMSSMVSDTSCTFPSGDGIFWKHWIQTKDGQCGSPLVSTRDGFIVGIHSASNFTNTNNYFTSVPKNFMELLTNQEAQQWVSGWRLNADSVLWGGHKVFMVKPEEPFQPVKEATQL
# Variants of: B1
# Assay: raw area under fraction-flipped curve 0-4 h after induction (AUC4h, not background-subtracted), DNA-recorder readout of cleavage of the substrate (dimensionless); higher = more cleavage of the substrate by the protease variant
# Conditions: temperature: 34 °C; time window: 0-4 h after rhamnose induction
# Experimental: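 In vivo DNA recorder in E. coli TOP10(DE3) ΔrhaA at 34 °C. Each TEVp single-site mutant (parent TEVp 0) is paired with a single-site variant of the 7-mer TEVs (canonical ENLYFQ|S). The substrate sits between flexible linkers in a Bxb1-sfGFP-TEVs-SsrA fusion, so cleavage stabilises Bxb1 and speeds flipping of a recombination array, read by NGS. The value is the raw area under the fraction-flipped curve over 0-4 h after rhamnose induction (AUC4h), with ≥20 reads per time point. It is not background-subtracted; inactive controls average about 0.047.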
# 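Note: Bxb1 expression induced with 0.2% (w/v) L-rhamnose at OD600 near 0.5, cultures sampled hourly, flipped fraction per protease–substrate barcode pair counted by paired-end Illumina sequencing.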
Variant,area with substrate EALYFQS,area with substrate ECLYFQS,area with substrate EDLYFQS,area with substrate EELYFQS,area with substrate EGLYFQS,area with substrate EHLYFQS,area with substrate EILYFQS,area with substrate EKLYFQS,area with substrate EMLYFQS,area with substrate EPLYFQS,area with substrate EQLYFQS,area with substrate ERLYFQS,area with substrate ESLYFQS,area with substrate EVLYFQS,area with substrate EWLYFQS,area with substrate ELLYFQS,area with substrate EYLYFQS,area with substrate EFLYFQS,area with substrate ETLYFQS
P228A,0.137,0.0713,0.117,0.109,0.111,0.0917,0.093,0.107,0.13,0.0802,0.0766,0.0902,0.105,,,,,,
P228C,0.105,0.109,0.0889,0.117,0.108,0.113,0.0652,0.108,,0.117,0.137,0.118,0.101,0.0863,0.0864,,,,
P228E,0.122,0.0895,,0.0925,,,0.117,0.108,0.0424,,,0.109,,,,0.109,0.111,,
V229P,0.147,0.127,0.108,,0.11,,0.123,,0.133,0.139,0.125,0.0978,0.123,0.106,0.101,,0.11,0.0886,0.163
E231R,0.114,0.0946,,,0.109,0.0869,0.119,0.0966,,,0.117,0.0957,,0.0787,,,0.106,0.088,
T233C,0.117,0.115,,,0.0255,,0.0952,0.0911,,,0.092,0.103,0.077,0.08,,0.0869,0.0962,,0.0964
Q234C,0.0819,0.0883,0.12,0.104,0.0473,,0.108,0.0971,0.0993,,0.102,0.115,0.095,0.0907,0.122,0.0796,,0.102,0.11
Q234M,0.109,0.0716,,0.119,,0.139,0.0889,0.0901,0.0869,,,,0.107,0.0874,0.0893,,0.102,,
L235A,0.148,0.11,,,0.0909,0.0564,,0.104,0.127,0.119,0.12,0.124,0.132,0.0877,,0.0701,0.125,0.0913,
F6R,,0.091,,,0.0989,,0.105,,,0.0934,,,0.0976,,0.0804,0.0908,,,
K7I,,0.07,,,0.0712,,,0.0733,0.0794,,0.0782,0.0732,0.0561,,,,0.0525,,
K7P,,0.102,,,,,0.0808,0.0923,,0.102,0.0909,,,0.0829,0.0758,0.0726,,,0.0955
P9H,,0.116,,,,,,,0.117,,,,0.104,,0.101,0.106,,,
Y34N,,0.094,,,,,0.0802,0.0818,0.0877,,,0.0381,0.0833,,,0.074,0.0935,,
G35N,,0.0387,,,0.0341,0.0543,,0.0156,,,,,,0.0332,,,,,
F38D,,0.0695,,,,,,,,,,,,,,0.0476,0.0612,,
F41K,,0.0445,,,0.058,,0.056,,,0.0645,0.0663,0.0707,0.0667,0.0673,,0.0461,,,
